# This is one part of the list.
# Tests used:
# Experiment in all cases: glycan array binding signal (z-score within array); higher = stronger binding
# Settings in all cases: glycan notation: IUPAC condensed, linker removed; mutation: R343A
# [1] = target: GlcNAc(b1-3)[GlcNAc(b1-6)]GalNAc
# How it was run: (§1)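 Negative Z-scores can be read as non-binding. The Z-score is calculated within each array and then averaged across arrays of one protein sequence at different concentrations or buffers and across linkers. Arrays, 3228 in all, were curated from the Consortium for Functional Glycomics database and kept only where the protein sequence was available.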
# [2] = target: GlcNAc(b1-4)Gal(b1-4)GlcNAc
# How it was run: as §1
# GlcNAc(b1-4)GlcNAc = target: GlcNAc(b1-4)GlcNAc
# How it was run: as §1
# [3] = target: GlcNAc(b1-4)GlcNAc(b1-4)GlcNAc
# How it was run: as §1
# [4] = target: GlcNAc(b1-4)GlcNAc(b1-4)GlcNAc(b1-4)GlcNAc(b1-4)GlcNAc
# How it was run: as §1
# [5] = target: GlcNAc(b1-4)GlcNAc(b1-4)GlcNAc(b1-4)GlcNAc(b1-4)GlcNAc(b1-4)GlcNAc
# How it was run: as §1
# [6] = target: GlcNAc(b1-4)[GlcNAc(b1-6)]GalNAc
# How it was run: as §1
# [7] = target: GlcNAc(b1-6)Gal(b1-4)GlcNAc
# How it was run: as §1
# GlcNAc(b1-6)GalNAc = target: GlcNAc(b1-6)GalNAc
# How it was run: as §1
# GlcNAc3Prop(b1-4)GlcNAc = target: GlcNAc3Prop(b1-4)GlcNAc
# How it was run: as §1
# Kdn(a2-3)Gal(b1-3)GlcNAc = target: Kdn(a2-3)Gal(b1-3)GlcNAc
# How it was run: as §1
# Kdn(a2-3)Gal(b1-4)GlcNAc = target: Kdn(a2-3)Gal(b1-4)GlcNAc
# How it was run: as §1
# [8] = target: Man(a1-2)Man(a1-2)Man(a1-3)Man
# How it was run: as §1
# [9] = target: Man(a1-2)Man(a1-2)Man(a1-6)[Man(a1-3)]Man
# How it was run: as §1
# Man(a1-2)Man(a1-3)Man = target: Man(a1-2)Man(a1-3)Man
# How it was run: as §1
# [10] = target: Man(a1-2)Man(a1-3)[Man(a1-2)Man(a1-6)]Man
# How it was run: as §1
# [11] = target: Man(a1-2)Man(a1-3)[Man(a1-2)Man(a1-6)]Man(a1-6)[Man(a1-2)Man(a1-2)Man(a1-3)]Man
# How it was run: as §1
# [12] = target: Man(a1-2)Man(a1-3)[Man(a1-2)Man(a1-6)]Man(a1-6)[Man(a1-2)Man(a1-2)Man(a1-3)]Man(b1-4)GlcNAc(b1-4)GlcNAc
# How it was run: as §1
# [13] = target: Man(a1-2)Man(a1-3)[Man(a1-6)]Man(a1-6)[Man(a1-2)Man(a1-3)]Man(b1-4)GlcNAc(b1-4)GlcNAc
# How it was run: as §1
# [14] = target: Man(a1-2)Man(a1-6)[Man(a1-3)]Man(a1-6)[Man(a1-2)Man(a1-2)Man(a1-3)]Man
# How it was run: as §1
# [15] = target: Man(a1-2)Man(a1-6)[Man(a1-3)]Man(a1-6)[Man(a1-2)Man(a1-2)Man(a1-3)]Man(b1-4)GlcNAc(b1-4)GlcNAc
# How it was run: as §1
# Man(a1-3)[Man(a1-6)]Man = target: Man(a1-3)[Man(a1-6)]Man
# How it was run: as §1
# [16] = target: Man(a1-3)[Man(a1-6)]Man(a1-6)[Man(a1-2)Man(a1-3)]Man(b1-4)GlcNAc(b1-4)GlcNAc
# How it was run: as §1
# [17] = target: Man(a1-3)[Man(a1-6)]Man(a1-6)[Man(a1-3)]Man
# How it was run: as §1
# [18] = target: Man(a1-3)[Man(a1-6)]Man(a1-6)[Man(a1-3)]Man(b1-4)GlcNAc(b1-4)GlcNAc
# How it was run: as §1
# [19] = target: Man(a1-3)[Man(a1-6)]Man(b1-4)GlcNAc(b1-4)GlcNAc
# How it was run: as §1
# Man(a1-6)Man = target: Man(a1-6)Man
# How it was run: as §1
# Man(b1-4)GlcNAc = target: Man(b1-4)GlcNAc
# How it was run: as §1
# Neu5Ac(a2-3)Gal = target: Neu5Ac(a2-3)Gal
# How it was run: as §1
# [20] = target: Neu5Ac(a2-3)Gal(b1-3)GalNAc
# How it was run: as §1
# [21] = target: Neu5Ac(a2-3)Gal(b1-3)GalNAc(b1-3)Gal(a1-4)Gal(b1-4)Glc
# How it was run: as §1
# [22] = target: Neu5Ac(a2-3)Gal(b1-3)GalNAc(b1-3)Gal(b1-4)GlcNAc
# How it was run: as §1
# [23] = target: Neu5Ac(a2-3)Gal(b1-3)GalNAc(b1-4)[Neu5Ac(a2-3)]Gal(b1-4)Glc
# How it was run: as §1
# [24] = target: Neu5Ac(a2-3)Gal(b1-3)GalNAc6S
# How it was run: as §1
# [25] = target: Neu5Ac(a2-3)Gal(b1-3)GlcNAc
# How it was run: as §1
# [26] = target: Neu5Ac(a2-3)Gal(b1-3)GlcNAc(b1-3)Gal(b1-3)GlcNAc
# How it was run: as §1
# [27] = target: Neu5Ac(a2-3)Gal(b1-3)GlcNAc6S
# How it was run: as §1
# [28] = target: Neu5Ac(a2-3)Gal(b1-3)[Fuc(a1-4)]GlcNAc
# How it was run: as §1
binder,measurement,setting,value
Surfactant Protein D (Human); Neck + Carbohydrate Recognition Domain (NCRD) (Homo sapiens) (protein) MLLFLLSALVLLTQPLGYLEAEMKTYSHRTMPSACTLVMCSSVESGLPGRDRDGREGPRGEKGDPGLPGAAGQAGMPGQAGPVGPKGDNGSVGEPGPKGDTGPSGPPGPPGVPGPAGREGALGKQGNIGPQGKPGPKGEAGPKGEVGAPGMQGSAGARGLAGPKGERGVPGERGVPGNTGAAGSAGAMGPQGSPGARGPPGLKGDKGIPGDKGAKGESGLPDVASLRQQVEALQGQVQHLQAAFSQYKKVELFPNGQSVGEKIFKTAQFVKPFTEAQLLCTQAGGQLASPRSAAENAALQQLVVAKNEAAFLSMTDSKTEGKFTYPTGESLVYSNWAPGEPNDDGGSEDCVEIFTNGKWNDAACGEKRLVVCEF,glycan array binding signal (z-score),[1],-0.267
same,glycan array binding signal (z-score),[2],-0.318
same,glycan array binding signal (z-score),GlcNAc(b1-4)GlcNAc,-0.281
same,glycan array binding signal (z-score),[3],0.571
same,glycan array binding signal (z-score),[4],-0.228
same,glycan array binding signal (z-score),[5],-0.187
same,glycan array binding signal (z-score),[6],-0.006
same,glycan array binding signal (z-score),[7],0.135
same,glycan array binding signal (z-score),GlcNAc(b1-6)GalNAc,-0.328
same,glycan array binding signal (z-score),GlcNAc3Prop(b1-4)GlcNAc,-0.238
same,glycan array binding signal (z-score),Kdn(a2-3)Gal(b1-3)GlcNAc,-0.253
same,glycan array binding signal (z-score),Kdn(a2-3)Gal(b1-4)GlcNAc,-0.194
same,glycan array binding signal (z-score),[8],1.75
same,glycan array binding signal (z-score),[9],-0.063
same,glycan array binding signal (z-score),Man(a1-2)Man(a1-3)Man,2.7
same,glycan array binding signal (z-score),[10],9.14
same,glycan array binding signal (z-score),[11],6.17
same,glycan array binding signal (z-score),[12],-0.269
same,glycan array binding signal (z-score),[13],9.15
same,glycan array binding signal (z-score),[14],2.79
same,glycan array binding signal (z-score),[15],1.43
same,glycan array binding signal (z-score),Man(a1-3)[Man(a1-6)]Man,-0.326
same,glycan array binding signal (z-score),[16],6.5
same,glycan array binding signal (z-score),[17],-0.352
same,glycan array binding signal (z-score),[18],-0.303
same,glycan array binding signal (z-score),[19],-0.219
same,glycan array binding signal (z-score),Man(a1-6)Man,-0.269
same,glycan array binding signal (z-score),Man(b1-4)GlcNAc,-0.233
same,glycan array binding signal (z-score),Neu5Ac(a2-3)Gal,-0.136
same,glycan array binding signal (z-score),[20],-0.311
same,glycan array binding signal (z-score),[21],-0.24
same,glycan array binding signal (z-score),[22],-0.019
same,glycan array binding signal (z-score),[23],-0.278
same,glycan array binding signal (z-score),[24],-0.158
same,glycan array binding signal (z-score),[25],-0.404
same,glycan array binding signal (z-score),[26],-0.026
same,glycan array binding signal (z-score),[27],-0.219
same,glycan array binding signal (z-score),[28],-0.198

# — the supplement of paper PMC8728848
